Screen size: about 330,000 compounds; about 1,700 (0.52%) were called active. The inconclusive results got no clear call from the source; some entries with a clear call stand among them for comparison. The call rests on the fitted dose curve; in most records, active means well fitted inhibition curve with a large enough effect; inconclusive means small, poorly fitted or top-dose-only effect; inactive means no such curve, though single readings can be large or run the other way. Where the call is inconclusive, the potency comes from a doubtful curve fit.
Each compound was assayed against Beta-lactamase (Escherichia coli (strain K12)) (UniProt P00811) (assay: qHTS Inhibitors of AmpC Beta-Lactamase (assay without detergent)). Details: AmpC nitrocefin hydrolysis, absorbance 480 nm, 0.0001% Triton; series mostly up to 57.1 µM.
Method in brief: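 20 mM phosphate pH 7.0 + 0.01% (detergent screen) or 0.0001% Triton X-100; 5.3 nM AmpC reagent; cpd preinc 15 min RT; nitrocefin (800 uM stock) to start; A480 q20 s × 4 min; Activity was normalised to no-enzyme and no-compound control wells.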
Further: nearly all actives have a fitted effect of over 20% in size.
Potency means the concentration at half of the fitted maximal effect; tags describe the fitted curve by direction and shape.

UniProt P00811, sequence (P00811 whole entry, looked up): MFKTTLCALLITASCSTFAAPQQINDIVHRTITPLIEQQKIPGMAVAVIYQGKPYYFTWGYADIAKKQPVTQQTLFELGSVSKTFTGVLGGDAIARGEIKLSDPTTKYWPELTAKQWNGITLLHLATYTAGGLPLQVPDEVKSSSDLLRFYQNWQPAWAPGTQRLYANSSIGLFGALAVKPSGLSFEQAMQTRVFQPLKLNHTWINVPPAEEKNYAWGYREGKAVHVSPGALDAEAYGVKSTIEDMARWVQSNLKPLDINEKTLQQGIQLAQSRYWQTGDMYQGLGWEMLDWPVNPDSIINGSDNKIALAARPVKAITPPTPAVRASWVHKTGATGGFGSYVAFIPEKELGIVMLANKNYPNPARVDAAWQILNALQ

Row | Compound | Potency
1 | O=C(Nc1ncc(Cc2cccc(C(F)(F)F)c2)s1)c1ccc(-c2cccc([N+](=O)[O-])c2)o1 | inconclusive: 4.47 µM [inhibitor, partial curve]
2 | Cc1c(C(=O)NCc2cccnc2)oc2ccc(S(=O)(=O)N3CC(C)CC(C)C3)cc12 (centres undefined) | inconclusive: 5.01 µM [inhibitor, full curve, poor fit]
3 | COc1ccc(C)cc1NC(=O)C(CCS(C)(=O)=O)NC(C)=O (centres undefined) | inconclusive: 6.31 µM [inhibitor, full curve, poor fit]
4 | O=C1CSC(=S)N1/N=C/c1ccc(Cl)c([N+](=O)[O-])c1 | active: 12.6 µM
5 | Cc1ccc2nc(SCC(=O)NC3CCCCC3)nc(=O)n2c1 | inconclusive: 35.5 µM [inhibitor, single point]
6 | COc1ccc(NC(=O)CSCC(=O)N(C)CC(=O)Nc2cccc3ccccc23)cc1 | inconclusive: 35.5 µM [inhibitor, single point]
7 | CC(/C=C1\N=C(SCc2ccccc2Cl)SC1=O)=C\c1ccccc1 | inconclusive: 22.4 µM [inhibitor, single point]
8 | COc1ccc(C)cc1NC(=O)C1CCCN(S(=O)(=O)c2cccc3nonc23)C1 (centres undefined) | inconclusive: 39.8 µM [inhibitor, single point]
9 | Cc1ccccc1Nc1nc(-c2sc(NC(=O)c3ccco3)nc2C)cs1 | inactive
10 | Oc1ccc(Br)cc1-c1cc(-c2ccccc2F)[nH]n1 | inactive
11 | COc1ccc(O)c(-c2cc(-c3cccc(Br)c3)n[nH]2)c1 | active: 2.24 µM
12 | Cn1c2cc(B(O)O)sc2c2cnn(Cc3ccc(F)cc3F)c(=O)c21 | active: 3.55 µM
13 | O=C1CC(NS(=O)(=O)c2cccs2)CN1c1ccc(F)cc1 (centres undefined) | active: 31.6 µM
14 | Cc1cccc(N2CCN(C(=O)c3cc4ccccc4oc3=O)CC2)c1C | inconclusive: 0.501 µM [inhibitor, full curve, poor fit]
15 | CC(C)(C)NC(=O)c1cccc(NC(=O)CSc2ccc(Cl)cc2)c1 | inconclusive: 2.82 µM [inhibitor, partial curve]
16 | CC(C)Cc1cc(C(=O)Nc2cc(Br)ccc2O)no1 | inconclusive: 2.82 µM [inhibitor, full curve, poor fit]
17 | C/C(CC(=O)Nc1ccc(Cl)c(C(F)(F)F)c1)=N\NC(=O)c1ccccc1O | inconclusive: 7.94 µM [inhibitor, partial curve]
18 | NC(=O)c1c(NC(=O)CSc2nnc(Cc3ccccc3)n2Cc2ccco2)sc2c1CCC2 | inactive
19 | COc1cc(/C=C2/SC(=Nc3ccc(O)cc3)NC2=O)ccc1O | inconclusive: 10 µM [inhibitor, partial curve]
20 | CCOC(=O)c1ccccc1NC(=O)COC(=O)C1CC(=O)N(c2ccc3c(c2)OCCO3)C1 (centres undefined) | inconclusive: 39.8 µM [inhibitor, single point]
21 | Cc1[nH]c2ccccc2c1C(c1ccncc1)N1CCN(c2ccc(F)cc2)CC1 (centres undefined) | inconclusive: 3.55 µM [inhibitor, full curve, poor fit]
22 | O=C(Nc1cccc(F)c1)NC1CCCCCCC1 | inconclusive: 20 µM [inhibitor, partial curve]
23 | CC1(C)CC(=O)C(CC2CCCCC2=O)C(=O)C1 (centres undefined) | inactive

Row | Compound | Potency
24 | CC(C)CN(C(=O)C1CC1)C1CCS(=O)(=O)C1 (centres undefined) | inconclusive: 31.6 µM [inhibitor, single point]
25 | O=c1cnnc(SCCc2ccccc2)[nH]1 | inconclusive: 0.355 µM [inhibitor, full curve, poor fit]
26 | Cc1ccccc1NC(=O)CSc1nc(N)c2c3c(sc2n1)CSC(C)(C)C3 | active: 15.8 µM
27 | CC(C)CCN(C)C1CCN(S(=O)(=O)c2ccc(F)cc2)CC1 | active: 10 µM
28 | COC(=O)c1cc(S(=O)(=O)Nc2cccc(OC)c2)cn1C | inconclusive: 35.5 µM [inhibitor, single point]
29 | CCCCn1nc2cc(C(=O)NCc3ccc(C(F)(F)F)cc3C(F)(F)F)ccc2c1OCC | inactive
30 | Nc1nnc(SCC(=O)NC2CCCCCCC2)s1 | inconclusive: 25.1 µM [inhibitor, single point]
31 | O=C(NCC(=O)N(Cc1ccccc1)C(C(=O)NCC1CCCO1)c1ccccc1)c1cccs1 (centres undefined) | inconclusive: 5.62 µM [inhibitor, single point]
32 | Cc1ccc(-c2nc3cc(Br)cnc3nc2-c2ccc(C)cc2)cc1 | inactive
33 | CCC(=O)Nc1cccc(NC(=O)c2ccc3c(c2)OCO3)c1 | active: 0.141 µM
34 | Cc1ccccc1NC(C)C(=O)N/N=C/c1c[nH]c2ccccc12 (centres undefined) | inconclusive: 31.6 µM [inhibitor, partial curve]
35 | O=S(=O)(c1ccc(F)cc1)N1CCCNCC1 | inactive
36 | CN(Cc1nc(-c2ccncc2)no1)S(=O)(=O)c1ccc(Br)cc1 | inconclusive: 2.51 µM [inhibitor, single point]
37 | CCOC(=O)/C(C)=C1\NC(C)(C)Cc2ccccc21 | inconclusive: 39.8 µM [inhibitor, single point]
38 | Cc1ccc2nc(SCc3ccc([N+](=O)[O-])cc3)[nH]c2c1 | inconclusive: 28.2 µM [inhibitor, partial curve]
39 | Cc1cccc(CSc2nc3ccncc3n2CC(=O)Nc2ccc(C)c(C)c2)c1 | active: 3.16 µM
40 | CC1CCCC(NC(=O)c2ccc(F)c(S(=O)(=O)N3CCOCC3)c2)C1C (centres undefined) | inconclusive: 31.6 µM [inhibitor, single point]
41 | COc1ccc(C(Nc2cc(C)ccn2)c2ccc3ccc(C)nc3c2O)cc1 (centres undefined) | inactive
42 | COc1ccc(S(=O)(=O)N2Cc3ccccc3CC2C(=O)Nc2ccc(O)cc2)cc1OC (centres undefined) | active: 0.708 µM
43 | Cc1cc(/C=N/NC(N)=S)c(C)n1-c1ccc(Cl)c(Cl)c1 | inconclusive: 28.2 µM [inhibitor, partial curve]
44 | O=C(CSc1nc2ccccc2[nH]1)NC1CCCc2ccccc21 (centres undefined) | inactive
45 | CC(C)N=C(NS(=O)(=O)c1ccccc1)C(Cl)(Cl)Cl | inconclusive: 25.1 µM [inhibitor, partial curve]
46 | CCCCn1c(CN(C)Cc2ccccc2)nc2c1c(=O)n(C)c(=O)n2C | inconclusive: 8.91 µM [inhibitor, single point]

Row | Compound | Potency
47 | CC(C)Oc1ccc(C(=O)Nc2ccc(Cl)c(S(=O)(=O)Nc3ccc(Cl)cc3)c2)cc1 | inconclusive: 7.08 µM [inhibitor, single point]
48 | Cc1cc(C)cc(NC(=O)c2ccccc2CC[N+](=O)[O-])c1 | inconclusive: 0.141 µM [inhibitor, full curve, poor fit]
49 | O=C(COc1ccccc1)NCC(c1ccco1)N1CCN(c2ccccc2)CC1 (centres undefined) | inconclusive: 31.6 µM [inhibitor, single point]
50 | Cc1ccc(-c2c(C(=O)N/N=C/c3ccc(C)o3)nnn2-c2nonc2N)cc1 | inconclusive: 31.6 µM [inhibitor, single point]
51 | C=CCNC(=O)c1ccc(CN2CCC(Cc3ccccc3)CC2)cc1 | inactive
52 | COc1ccc(C2=NN(c3nc(-c4ccccc4)c(CC(=O)O)s3)C(c3ccco3)C2)cc1 (centres undefined) | active: 14.1 µM
53 | O=C(CCNC(=O)c1ccc(Br)cc1)Nc1ccccc1N1CCCCC1 | inconclusive: 35.5 µM [inhibitor, single point]
54 | COc1ccc(-c2nnc3sc(C4CCCCC4)nn23)cc1OC | inconclusive: 0.631 µM [inhibitor, full curve, poor fit]
55 | CN(C(=O)c1ccc(NC(=O)Cc2cccc(NC(=O)C3CCCN(C(=O)C4CC4)C3)c2)cc1)C1CCCC1 (centres undefined) | inactive
56 | Clc1ccc(CSc2nnc(/C=C/c3ccccc3)o2)cc1 | active: 0.158 µM
57 | C=C1CCN(c2ccc(C(=O)NCc3ccccc3)cc2[N+](=O)[O-])CC1 | inconclusive: 39.8 µM [inhibitor, single point]
58 | CC1CN(C(=O)Nc2ccc3snnc3c2)c2ccccc21 (centres undefined) | inconclusive: 5.62 µM [inhibitor, full curve, poor fit]
59 | COc1cccc(NS(=O)(=O)c2ccc3[nH]cc(C(=O)NCCc4ccc(C)cc4)c(=O)c3c2)c1 | active: 6.31 µM
60 | CC(OC(=O)c1cccc(-n2cnnn2)c1)C(=O)c1ccccc1 (centres undefined) | inconclusive: 39.8 µM [inhibitor, single point]
61 | Oc1c(Cl)cc(Cl)cc1/C=N/c1nc(-c2ccc(Cl)cc2)cs1 | inconclusive: 20 µM [inhibitor, partial curve]
62 | Cc1ccc(S(=O)(=O)N2CCC(C(=O)OCc3c(C)noc3C)CC2)cc1C | inconclusive: 31.6 µM [inhibitor, single point]
63 | CC(=O)N(\C=C/C=C/C=C1\Sc2ccccc2C1=O)c1ccccc1 | inconclusive: 28.2 µM [inhibitor, single point]
64 | Cc1cc2ccc(C)c(C)c2nc1SCC(=O)c1cccs1 | inconclusive: 8.91 µM [inhibitor, single point]
65 | O=S(=O)(Nc1ccc(S(=O)(=O)Nc2nccs2)cc1)c1ccc(Br)cc1 | inconclusive: 7.94 µM [inhibitor, full curve, poor fit]
66 | O=C(COC(=O)CC1CCCC1)Nc1cccc(F)c1 | inactive
67 | O=C(O)c1cc(O)c2c(c1)[C@@H]([C@H]1c3cc(C(=O)O)cc(O)c3C(=O)c3c(O[C@@H]4O[C@H](CO)[C@@H](O)[C@H](O)[C@H]4O)cccc31)c1cccc(OC3O[C@H](CO)[C@@H](O)[C@H](O)[C@H]3O)c1C2=O (some centres undefined) | active: 1.41 µM
68 | CN(Cc1ccc(Cl)cc1)C(=O)CCl | inactive
69 | COc1ccc(-c2cc(C(=O)Nc3cc(OC)cc(C(=O)Nc4cccc(C(F)(F)F)c4)c3)[nH]n2)cc1 | active: 28.2 µM

From PubChem BioAssay AID485341 (National Center for Advancing Translational Sciences (NCATS), 2010)
